Laboratory results: PubChem BioAssay AID485367 (National Center for Advancing Translational Sciences (NCATS), 2010)
The campaign covered roughly 330,000 compounds. About 560 (0.17%) were called active. The shares of active, inactive and inconclusive entries below differ from those in the screen. Calls come from the whole dose curve; as a rule, active = well fitted inhibition curve with a large enough effect; inconclusive = small, poorly fitted or top-dose-only effect, or effect the other way; inactive = flat fitted curve, though single readings scatter. No potency is given beside an inconclusive call; the fits are too rough.

What follows are molecules tested against ATP-dependent 6-phosphofructokinase (Trypanosoma brucei brucei) (UniProt O15648) (assay: qHTS Assay to Find Inhibitors of T. brucei phosphofructokinase). Details: T. brucei PFK, ADP-Glo luminescence; activity, negative = inhibition: at 57.5 µM (top of the series).
UniProt O15648, sequence (O15648 whole entry, looked up): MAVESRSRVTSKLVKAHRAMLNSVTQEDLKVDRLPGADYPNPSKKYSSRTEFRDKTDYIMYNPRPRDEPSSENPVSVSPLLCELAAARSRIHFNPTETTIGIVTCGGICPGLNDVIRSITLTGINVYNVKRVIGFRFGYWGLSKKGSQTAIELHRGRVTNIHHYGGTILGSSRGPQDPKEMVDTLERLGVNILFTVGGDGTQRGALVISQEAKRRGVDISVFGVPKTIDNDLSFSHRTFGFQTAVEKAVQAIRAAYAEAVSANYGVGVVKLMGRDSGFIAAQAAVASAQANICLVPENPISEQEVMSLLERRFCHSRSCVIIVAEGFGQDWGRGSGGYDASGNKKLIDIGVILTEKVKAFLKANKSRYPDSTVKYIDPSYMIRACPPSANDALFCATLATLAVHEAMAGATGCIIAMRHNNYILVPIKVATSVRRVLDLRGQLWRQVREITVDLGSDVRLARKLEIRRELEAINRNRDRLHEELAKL
Description: NIH Molecular Libraries Probe Production Network [MLPCN] NIH Chemical Genomics Center [NCGC] Grant: 1 R03 MH092153-01 PI Name: Malcolm Walkinshaw, University of Edinburgh NCGC Assay Overview: Various species of the protozoan family Trypanosomatidae are responsible for a range of serious human diseases in tropical and subtropical areas of the world. […] Many of the disorders caused by trypanosomatids are fatal if left untreated, but most currently used drugs are inefficient and toxic. […] Oxidative metabolism involving the mitochondrial tricarboxylic acid cycle and oxidative phosphorylation are repressed in these parasites, and recent RNA interference (RNAi) experiments have shown that even partial depletion of certain individual glycolytic enzymes can lead to the death of cultured parasites. One such glycolytic enzyme, phosphofructokinase (PFK), catalyzes the formation of fructose-1,6-bisphosphate (F1,6BP) and ADP from fructose-6-phosphate (F6P) and ATP, and in many metabolic circumstances makes an important contribution to the control of flux through the glycolytic pathway. As a specific glycolytic target, PFK is particularly attractive as it catalyzes the first irreversible step in glycolysis, and structural and kinetic studies have shown very substantial and essential differences from corresponding host enzymes, allowing for the discovery of parasite-selective inhibitors. The goal of this screen is to find small-molecule inhibitors of T. brucei PFK using a biochemical assay that measures PFK activity as a function of ADP production. A luminescence-based assay for T. brucei PFK activity has been developed which uses luciferase to detect production of ADP. Traditional luciferase-based nucleotide detection reagents rely on ATP production as a direct substrate for the luciferase reaction; however, PFK catalyzes the transfer of a phosphate from ATP to F6P, resulting in the net depletion of ATP. To directly measure the ADP product of the PFK reaction, we used the ADP-Glo detection kit (Promega), which utilizes two separate reactions to 1) deplete all remaining uncatalyzed ATP and 2) convert all remaining ADP to ATP, which is then detected through a traditional luciferase-coupled reaction. Compounds were screened as a concentration-titration series that ranged from 57 uM to 0.7 nM.
NCGC Assay Protocol Summary: NCGC Assay Protocol Summary: Substrate buffer was dispensed into white, solid 1536-well plates at 3uL/well in 0.1M triethanolamine (TEA) buffer, pH 8.0, containing final concentrations of 5 mM MgCl2, 0.01% Tween20, 0.5 mM fructose-6-phosphate (F6P) and 0.1mM ATP. Then, 23 nL of compounds or DMSO were delivered to each well using a pin tool. One uL T. brucei PFK (0.1M TEA, 0.01% Tween20, 0.1% bovine serum albumin (BSA) and 1.25nM PFK, final concentrations) was then dispensed, and plates were incubated at room temperature for 45 min. The luminescent detection reagent, ADP-Glo (Promega), was then added in two steps: the first reagent, ADP-Glo (which converts remaining uncatalyzed ATP), was added at 2.5uL/well and incubated for ten minutes at room temperature, and the second component, Kinase Detection reagent (which converts ADP to ATP as a substrate for luciferase-based luminescence), was added immediately after at 5uL/well, followed by one final ten minute room temperature incubation. The plates were measured on a ViewLux plate reader for luminescent signal using a clear filter with a one second exposure. The %Activity was determined from the corrected luminescence values. As no specific T. brucei PFK inhibitors have been identified in the literature, 1x (1.25nM) and 0x PFK enzyme controls (untreated) were included to normalize %Activity of identified inhibitors; 0x enzyme values corresponded to 100%Activity (full inhibition), while 1x PFK enzyme values were used to normalize 0%Activity (no inhibition). Concentration-response curves were fitted to the signals arising from the resulting luminescence. […]
Note: nearly all actives have a fitted effect of over 60% in size.
Potency is the fitted concentration of half-maximal effect; tags give direction and shape of the fitted curve.

Structure (SMILES) | Potency | activity, negative = inhibition
FC(F)(F)C1CCCN(c2nsc3ccccc23)C1 (stereo not given) | active: 6.75 µM | –
CC(C)(C)c1ccc(O)c(O)c1 | inconclusive [falling, single point] | –
C[C@@H]1CN([C@@H](C)CO)C(=O)c2cc(NC(=O)C3CC3)ccc2O[C@@H]1CN(C)Cc1ccc(Cl)c(Cl)c1 | inconclusive [activator, partial curve] | –
O=C(/C=C/c1ccc(Cl)c([N+](=O)[O-])c1)Nc1ccc(N2CCCC2)cc1 | inconclusive [activator, single point] | –
CC(C)C1Cc2c(sc3c2c(=O)n(Cc2ccccc2)c2nncn32)CO1 (stereo not given) | inconclusive [activator, single point] | –
CCCCC(CC)CNC(=O)c1[nH]c(C)c(C(C)=O)c1C (stereo not given) | inconclusive [falling, single point] | –
COc1ccccc1C(=O)N/N=C/c1c[nH]c2ccccc12 | inconclusive [falling, single point] | –
Cc1cc(C)cc(NC(=O)/C=C/c2ccc([N+](=O)[O-])s2)c1 | inconclusive [falling, full curve, poor fit] | –
COc1ccc(C(=O)N/N=C/c2cc3ccccc3[nH]c2=S)cc1 | inconclusive [falling, partial curve] | –
Cc1cccc(NC(=O)C2CCN(S(=O)(=O)c3c(C)c(C)cc(C)c3C)CC2)n1 | – | inactive: 4.11%
O=C1Nc2cc(Cl)c(Cl)cc2N(O)N1c1ccc(Cl)c(Cl)c1 | active: 13.5 µM | –
Cc1ccc(SCC(=O)c2ccc(CC(=O)O)s2)cc1 | inconclusive [falling, partial curve] | –
Cn1nnnc1SCC1=C(C(=O)O)N2C(=O)C(NC(=O)Cn3nc(C(F)F)cc3C3CC3)C2SC1 (stereo not given) | inconclusive [falling, single point] | –
O=C(CSc1nnnn1C1CC1)N1CCN(c2ccccc2F)CC1 | – | inactive: -7.83%
O=c1[nH]c2cc3c(cc2cc1CN(Cc1cccnc1)Cc1nnnn1Cc1ccco1)OCCO3 | inconclusive [falling, single point] | –
O=C1NC(=S)S/C1=C\c1coc2ccc(O)cc2c1=O | inconclusive [activator, partial curve] | –
COc1cccc(NC(=O)CN(C)C(=O)c2cc(-c3ccco3)nc3ccccc23)c1 | inconclusive [falling, partial curve] | –
O=C1SC(SCc2ccccc2)=N/C1=C\c1ccc(C(=O)O)cc1 | inconclusive [activator, partial curve] | –

Structure (SMILES) | Potency | activity, negative = inhibition
O=C(OC1CCCCC1)c1ccc2c(c1)C1C=CCC1C(C(=O)O)N2 (stereo not given) | inconclusive [falling, full curve] | –
Oc1ccc(O)c(/C(=N/Nc2ccccc2)c2ccccc2)c1 | inconclusive [falling, partial curve] | –
O=C(O)C/C(=C\c1ccc(N2CCOCC2)c([N+](=O)[O-])c1)c1nc2ccccc2s1 | inconclusive [activator, single point] | –
C/C(N)=C(/C#N)C(=O)COC(=O)c1cc(-c2ccc(Br)cc2)nc2ccccc12 | inconclusive [falling, single point] | –
COC(=O)NCc1ccc(Cl)c(Cl)c1 | active: 21.3 µM | –
COc1ccccc1N1CCN(CCNC(=O)Nc2cccc(C)c2C)CC1 | – | inactive: -5.61%
COC(=O)c1ccc(NC(=O)CSC2=Nc3ccccc3C3CC=NN23)cc1 (stereo not given) | – | inactive: 1.24%
COc1cc(NC(=O)c2noc3c2CCC3)c(OC)cc1Cl | inconclusive [falling, single point] | –
COc1ccc(C(=O)Oc2ccc(=O)n(-c3ccccc3)n2)cc1 | inconclusive [falling, single point] | –
O=C(NCCCl)NNC(=O)c1cc2ccccc2cc1O | – | inactive: -1.62%
CC(C)CCN1CCN(Cc2cccn2-c2ccc(Cl)cn2)CC1CCO (stereo not given) | inconclusive [falling, partial curve] | –
O=[N+]([O-])c1ccc(Cl)c(S(=O)(=O)NC2=NCCC2)c1 | – | inactive: -8.82%
CCOC(=O)CC(NS(=O)(=O)c1ccc2[nH]cc(C(=O)O)c(=O)c2c1)c1ccc(OCC)c(OC)c1 (stereo not given) | inconclusive [falling, single point] | –
CC(=O)N(C)Cc1ccc(C(=O)CCl)cc1 | inconclusive [falling, partial curve] | –
CN(C)C(=O)c1cc(C(=O)c2ccc(F)cc2F)c[nH]1 | – | inactive: -4.58%
C[C@H](CO)N1C[C@H](C)[C@@H](CN(C)Cc2ccc(Cl)c(Cl)c2)Oc2c(NC(=O)c3ccncc3)cccc2C1=O | – | inactive: 0.258%
CC1=NOC(=O)/C1=C\c1ccc(-c2ccc(Cl)cc2Cl)o1 | inconclusive [falling, single point] | –
